Measured values reported in PubChem BioAssay AID1745853 (National Center for Advancing Translational Sciences (NCATS), 2022).
Some of the results follow. These are further read-outs of the screen, such as a control signal, another cell line or another target. No call is given for them.

Tests used:
Assay in all cases: Primary Screen for Target Class Profiling of Small Molecule Inhibitors of Methyltransferases
[1] = biological target: Glycine N-methyltransferase (Homo sapiens) (UniProt Q14749); conditions: purified enzyme, MTase-Glo SAH luminescence; measured here: GNMT inhibition; at 40 µM; stronger effect = lower value
Outline: (§1)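 Each enzyme was assayed with SAM and its substrate. SAH formation detected by MTase-Glo luminescence; single-point 40 uM screen[…].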

[2] = biological target: Guanidinoacetate N-methyltransferase (Homo sapiens) (UniProt Q14353); conditions: purified enzyme, MTase-Glo SAH luminescence; measured here: GAMT inhibition; at 40 µM; stronger effect = lower value
Outline: as §1

[3] = biological target: Histamine N-methyltransferase (Homo sapiens) (UniProt P50135); conditions: purified enzyme, MTase-Glo SAH luminescence; measured here: HNMT inhibition; at 40 µM; stronger effect = lower value
Outline: as §1

[4] = biological target: Nicotinamide N-methyltransferase (Homo sapiens) (UniProt P40261); conditions: purified enzyme, MTase-Glo SAH luminescence; measured here: NNMT inhibition; at 40 µM; stronger effect = lower value
Outline: as §1

[5] = biological target: Phenylethanolamine N-methyltransferase (Homo sapiens) (UniProt P11086); conditions: purified enzyme, MTase-Glo SAH luminescence; measured here: PNMT inhibition; at 40 µM; stronger effect = lower value
Outline: as §1
On the % scale 0 is the no-effect control and ±100 the full control effect.

Molecule `CC1CCC(NC(=O)CCc2nnc3n(Cc4ccccc4)c(=O)c4ccccc4n23)CC1` (stereo not given) has an activity change, negative = inhibition [1] of -0.01%, an activity change, negative = inhibition [2] of 1.33% and an activity change, negative = inhibition [3] of 6.44%. The activity change, negative = inhibition [4] was -0.567% and the activity change, negative = inhibition [5] was 2.32%.

For `CCC(C)NC(=O)c1ccc2c(=O)n(C)c3nn(CC(=O)NCc4ccc(Cl)cc4)c(=O)n3c2c1` (stereo not given), the activity change, negative = inhibition [1] was 4.47%, the activity change, negative = inhibition [2] was 1.53% and the activity change, negative = inhibition [3] was 4.09%. It also gave an activity change, negative = inhibition [4] of -2.94% and an activity change, negative = inhibition [5] of 1.56%.

`O=C(NCCc1ccco1)c1cc2n(n1)CCCN(Cc1cccc(F)c1)C2=O` was tested, and the activity change, negative = inhibition [1] was -9.05%, the activity change, negative = inhibition [2] was 4.92% and the activity change, negative = inhibition [3] was -6.98%. The activity change, negative = inhibition [4] was -9.84% and the activity change, negative = inhibition [5] was -3.82%.

For `CC1=CC(=O)CC(C)(C)C1/C=C/C(C)O[C@@H]1O[C@H](CO)[C@@H](O)[C@H](O)[C@H]1O[C@@H]1OC[C@](O)(CO)[C@H]1O` (stereo not given in full), the activity change, negative = inhibition [1] was 4.55%, the activity change, negative = inhibition [2] was 6.31% and the activity change, negative = inhibition [3] was 11.7%. The activity change, negative = inhibition [4] was -6.66% and the activity change, negative = inhibition [5] was 8.16%.

For `COCCNC(=O)C1(C)Cn2nc(-c3ccccc3)cc2C(=O)N1Cc1ccc(C)cc1` (stereo not given), the activity change, negative = inhibition [1] was -3.97%, the activity change, negative = inhibition [2] was 3.15% and the activity change, negative = inhibition [3] was 3.93%. The activity change, negative = inhibition [4] was 8.21% and the activity change, negative = inhibition [5] was -2.46%.

`CC(=O)O[C@H]1[C@H](O[C@H]2CC[C@]34C[C@]35CC[C@]3(C)[C@@H]([C@@]6(C)CC[C@@H](C(C)(C)O)O6)[C@@H](O)C[C@@]3(C)[C@@H]5C[C@H](O[C@@H]3O[C@H](CO)[C@@H](O)[C@H](O)[C@H]3O)[C@H]4C2(C)C)OC[C@@H](OC(C)=O)[C@@H]1O` gave an activity change, negative = inhibition [1] of -7.63%, an activity change, negative = inhibition [2] of 13.4% and an activity change, negative = inhibition [3] of 13%. The activity change, negative = inhibition [4] was 8.38% and the activity change, negative = inhibition [5] was 9.93%.

`CC(C)(C)c1ccc(NC(=O)N2CCN(c3ncccc3Cl)CC2)cc1` gave an activity change, negative = inhibition [1] of -2.85%, an activity change, negative = inhibition [2] of -0.889% and an activity change, negative = inhibition [3] of 11.8%. The activity change, negative = inhibition [4] was -18.4% and the activity change, negative = inhibition [5] was -9.21%.

In the case of `COCC(=O)N[C@H]1C[C@@H](CO)N(Cc2scnc2C)C1`, the activity change, negative = inhibition [1] is reported as -7.57%, the activity change, negative = inhibition [2] is reported as -9.64% and the activity change, negative = inhibition [3] is reported as -4.44%. For the same molecule, the activity change, negative = inhibition [4] was -16.3% and the activity change, negative = inhibition [5] was -11.1%.

Work on `COCCOc1cc(-c2noc([C@@H]3CCCN3C3CCN(C(C)=O)CC3)n2)ccn1` yielded an activity change, negative = inhibition [1] of -1.61%, an activity change, negative = inhibition [2] of -3.12% and an activity change, negative = inhibition [3] of -1.03%. The activity change, negative = inhibition [4] was -10.8% and the activity change, negative = inhibition [5] was -1.64%.

In the case of `CC(C)n1cc(-c2cc(C(=O)N(C)Cc3cccnc3)c3cc(F)ccc3n2)cn1`, the activity change, negative = inhibition [1] is reported as -4.39%, the activity change, negative = inhibition [2] is reported as -3.47% and the activity change, negative = inhibition [3] is reported as -0.395%. It also gave an activity change, negative = inhibition [4] of -4.73% and an activity change, negative = inhibition [5] of -3.62%.

With `O=C1NCc2nc3ccccc3c(=O)n2C1Cc1c[nH]c2ccccc12` (stereo not given) the activity change, negative = inhibition [1] was 2.25%, the activity change, negative = inhibition [2] was 7.29% and the activity change, negative = inhibition [3] was 5.04%. For the same molecule, the activity change, negative = inhibition [4] was -9.15% and the activity change, negative = inhibition [5] was 2.56%.

With `CCc1c(Cl)c(O)c(Cl)c(O)c1C(=O)O[C@H]1[C@H](O)[C@H](OC)[C@H](OC/C2=C\C=C\C[C@H](O)/C(C)=C\[C@H](CC)[C@@H](O[C@@H]3OC(C)(C)[C@@H](OC(=O)C(C)C)[C@H](O)[C@@H]3O)/C(C)=C/C(C)=C/C[C@@H]([C@@H](C)O)OC2=O)O[C@@H]1C` the activity change, negative = inhibition [1] was -5.04%, the activity change, negative = inhibition [2] was 16.9% and the activity change, negative = inhibition [3] was -69.8%. The activity change, negative = inhibition [4] was -16.1% and the activity change, negative = inhibition [5] was -2.87%.

In the case of `O=C(c1cc(-c2cccnc2)c2nncn2n1)N1CCOCC1`, the activity change, negative = inhibition [1] is reported as -3.47%, the activity change, negative = inhibition [2] is reported as -1.36% and the activity change, negative = inhibition [3] is reported as -0.788%. It also gave an activity change, negative = inhibition [4] of -4.34% and an activity change, negative = inhibition [5] of -5.34%.

In the case of `COCc1nc(CCNC(=O)NCCc2ccccc2)no1`, the activity change, negative = inhibition [1] is reported as 0.431%, the activity change, negative = inhibition [2] is reported as -1.63% and the activity change, negative = inhibition [3] is reported as 1.78%. The activity change, negative = inhibition [4] was -1.27% and the activity change, negative = inhibition [5] was -10.8%.

For `O=C(O)CO[C@@H]1COCC[C@H]1NC(=O)c1cc2c(s1)CCCCC2`, the activity change, negative = inhibition [1] was -3.5%, the activity change, negative = inhibition [2] was -5.97% and the activity change, negative = inhibition [3] was -3.34%. For the same molecule, the activity change, negative = inhibition [4] was -6.91% and the activity change, negative = inhibition [5] was 0.317%.

`COCCOCc1nc(C2CCCN2S(=O)(=O)Cc2ccccc2)no1` (stereo not given) gave an activity change, negative = inhibition [1] of 0.832%, an activity change, negative = inhibition [2] of 1.86% and an activity change, negative = inhibition [3] of 2.57%. For the same molecule, the activity change, negative = inhibition [4] was -1.41% and the activity change, negative = inhibition [5] was 6.96%.

With `O=C(c1ccon1)N1CCN(Cc2cnn3cccnc23)CC(O)C1` (stereo not given) the activity change, negative = inhibition [1] was -4.3%, the activity change, negative = inhibition [2] was -3.62% and the activity change, negative = inhibition [3] was -1.65%. The activity change, negative = inhibition [4] was -3.17% and the activity change, negative = inhibition [5] was 0.317%.
